In the BET-seq Pho4 binding data (Le et al. 2018):
The list shows a part of the results. The energies were worked out here from pooled read counts, against the library average; single values are noisy.

Target: T1, Pho4 (S. cerevisiae) (UniProt P07270)
T1 sequence: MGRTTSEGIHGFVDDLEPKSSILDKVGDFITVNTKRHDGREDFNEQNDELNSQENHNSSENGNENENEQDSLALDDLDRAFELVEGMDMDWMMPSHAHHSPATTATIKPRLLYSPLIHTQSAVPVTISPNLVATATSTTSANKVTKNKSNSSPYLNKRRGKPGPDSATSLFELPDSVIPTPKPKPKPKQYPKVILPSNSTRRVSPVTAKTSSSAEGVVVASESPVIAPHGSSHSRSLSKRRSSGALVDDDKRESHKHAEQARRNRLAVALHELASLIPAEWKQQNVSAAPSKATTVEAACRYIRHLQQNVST
Test: relative binding free energy (BET-seq); higher = weaker binding
Settings: reference: library average

Row | Sequence | relative binding free energy [kcal/mol]
1 | GTTTTCACGTGCTAGT | 0.32
2 | TATGGCACGTGAATTA | 0.24
3 | CTACGCACGTGTTTGT | -0.09
4 | TGGTGCACGTGGATAA | 0.02
5 | GTTCTCACGTGTTTGA | 0.06
6 | GGTTTCACGTGGCCTT | 0.19
7 | ATGGGCACGTGTAGCA | -0.12
8 | GTTGGCACGTGCAAAG | -0.11
9 | GTGAGCACGTGTGCGG | -0.09
10 | TTTTCCACGTGATGTA | 0.24
11 | GGTGTCACGTGTGTTG | 0.15
12 | ATCGTCACGTGCGTTT | 0.16
13 | TGGTTCACGTGTCGTC | 0.2
14 | GGGGCCACGTGGGTCG | -0.08
15 | TGTGGCACGTGCGCTG | -0.2
16 | AGGGGCACGTGTGCTT | -0.14
17 | GGGGGCACGTGAGTCG | 0.13
18 | TGTGGCACGTGATCTG | -0.02
19 | GGTGACACGTGGGGAT | -0.11
20 | ATTGTCACGTGGTGGT | 0.06
21 | GTTGGCACGTGCAGTT | 0.01
22 | AATAGCACGTGTCATG | -0.1
23 | ACAAGCACGTGGTTTG | -0.07

Row | Sequence | relative binding free energy [kcal/mol]
24 | GTGGACACGTGAATGG | 0.31
25 | ACTTGCACGTGAGGTA | 0.1
26 | GGATACACGTGTTTAA | 0.11
27 | ACTGTCACGTGATGTT | 0.08
28 | TGTTTCACGTGCAGGC | 0.13
29 | AATGTCACGTGGTCTT | 0.11
30 | TTGTTCACGTGTAGAT | 0.39
31 | ATGGACACGTGGGTGC | -0.18
32 | AGTGGCACGTGGGACT | -0.14
33 | GGGTTCACGTGTAGCT | 0.27
34 | ACAGGCACGTGGTGGG | -0.16
35 | TTTTGCACGTGCACTT | -0.14
36 | GGGCACACGTGTTATG | 0.13
37 | CGTAGCACGTGAGTAA | 0.21
38 | TCTGTCACGTGTTTAT | 0.14
39 | TGTTTCACGTGCATAT | 0.36
40 | TAGTTCACGTGAGCAG | 0.44
41 | GGCGTCACGTGTCGGG | 0.24
42 | GCAGACACGTGGGGGT | -0.17
43 | CGTGTCACGTGGGAAT | 0.02
44 | GGGATCACGTGTTGGT | 0.09
45 | TTACGCACGTGGGTGG | -0.28
46 | AATGTCACGTGGCTTA | 0.1

Row | Sequence | relative binding free energy [kcal/mol]
47 | AGGACCACGTGTTGTG | -0.12
48 | ATGTACACGTGGGCAT | -0.07
49 | GGGGCCACGTGGAAAG | 0.09
50 | CTGGTCACGTGCTGGC | 0.17
51 | TGAGGCACGTGGCTTA | -0.12
52 | TCTTTCACGTGGCTTT | 0.19
53 | TTTGTCACGTGTTATT | 0.11
54 | TTTTACACGTGATAGT | 0.14
55 | TTGGTCACGTGTGGGA | 0.13
56 | ACAGACACGTGTTGGT | 0.09
57 | TATTGCACGTGGGCGC | -0.07
58 | TGGGGCACGTGATAGA | -0.08
59 | TGGATCACGTGTTACG | 0.26
60 | AATGGCACGTGTTTTG | -0.08
61 | AAGGGCACGTGTCAGG | -0.21
62 | TTTAACACGTGGGAAT | 0
63 | AATGTCACGTGTGATG | 0.09
64 | CGTGTCACGTGCGTAT | -0.02
65 | TGGCTCACGTGGGCGG | 0.1
66 | TCTGTCACGTGCTTGG | 0
67 | AGGTCCACGTGGAGGC | 0
68 | GGTTTCACGTGGCATA | 0.3
69 | ATTATCACGTGGAAGG | 0.11

Row | Sequence | relative binding free energy [kcal/mol]
70 | TGTCGCACGTGAGATG | 0.1
71 | TTTTTCACGTGCTCTG | 0.13
72 | TCTTGCACGTGGAAGG | 0.12
73 | CGGACCACGTGGGGTG | -0.21
74 | TTCGGCACGTGAAGTA | 0.12
75 | AGGATCACGTGTGAAG | 0.22
76 | GTTAGCACGTGAGTGT | 0.22
77 | AAGGTCACGTGTGAGA | 0.23
78 | GCAGTCACGTGGATGT | 0.13
79 | GAGTTCACGTGTAAGG | 0.31
80 | AGTCACACGTGAGGGA | 0.28
81 | TGTAGCACGTGGGGTA | -0.26
82 | TGACACACGTGAGGTT | 0.42
83 | TGCTACACGTGATGTT | 0.15
84 | AGATTCACGTGTAGGA | 0.2
85 | GATAGCACGTGAAGTG | 0.3
86 | AATCTCACGTGTGTGT | 0.37
87 | TTGCGCACGTGTTAAT | -0.05
88 | TAGTACACGTGCGGGA | -0.03
89 | TGAGGCACGTGTAGTT | 0.06
90 | GGGCTCACGTGTCGTT | 0.33
91 | CTTGGCACGTGGGAGC | -0.1
92 | AGGAGCACGTGTGGCA | -0.13

Row | Sequence | relative binding free energy [kcal/mol]
93 | CGGATCACGTGTTTGG | 0.21
94 | TGTGACACGTGGGCCT | -0.15
95 | GATTGCACGTGCAAGG | 0.22
96 | TCGTTCACGTGTTTGA | 0.32
97 | TGATGCACGTGGACTT | 0.15
98 | TATTGCACGTGCTGGC | 0.01
99 | TGGGACACGTGAGACA | 0.35
100 | GTATGCACGTGAAGTA | 0.18
101 | ATGTGCACGTGTTAAA | -0.13
102 | TTTGACACGTGTGGAC | 0.05
103 | ATTTTCACGTGAGGTC | 0.35
104 | GGTACCACGTGTAGGA | 0.06
105 | ATATTCACGTGCTGTG | 0.25
106 | AGGTTCACGTGTTTAT | 0.33
107 | CGAGGCACGTGCCGGG | -0.15
108 | AGTTTCACGTGAAAGG | 0.5
109 | TTGGGCACGTGACGTT | 0.05
110 | ATTTACACGTGAATTG | 0.23
111 | GTAGTCACGTGGTTAA | 0.15
112 | GCGCGCACGTGGTGTT | -0.1
113 | TCGGGCACGTGGGTGA | -0.18
114 | CGGGGCACGTGGACTT | -0.07
115 | TGTCGCACGTGTGCTT | -0.07
